According to PMC12820563:
The list shows a part of the results. The list includes weakly bound sequences.

target: T1, MBP-FoxP3dN (UniProt Q99JB6); test: PD-seq (MBP pull-down with sequencing); settings: 20 mM Tris-HCl pH 7.5, 100 mM NaCl, 1.5 mM MgCl2, 0.4 uM protein, 0.1 uM dsDNA library, 30 min, room temperature, amylose pull-down; high values mean tight binding; double strand, one strand shown
T1 sequence: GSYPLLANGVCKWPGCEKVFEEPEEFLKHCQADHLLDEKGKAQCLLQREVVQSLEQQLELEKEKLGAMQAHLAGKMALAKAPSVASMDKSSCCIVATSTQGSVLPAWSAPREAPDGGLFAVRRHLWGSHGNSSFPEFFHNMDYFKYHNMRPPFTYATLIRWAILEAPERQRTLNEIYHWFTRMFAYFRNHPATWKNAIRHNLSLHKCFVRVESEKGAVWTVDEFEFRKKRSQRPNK

Sequence	binding signal (RPM ratio (pull-down/input))
GATGATTGTTCTCCCAGCTGATGAATTTGAAGCATCGAGTAAACAAATTTTCCTAATCTTTCTGTTCAAGCGCCATCTAC	0.792
GATGATTGTTCTCCCAGCTGATGAATTACGTTACTCGAGTAAACAAATTTTCCTAATCTTTCTGTTCAAGCGCCATCTAC	1.32
GATGATTGTTCTCCCAGCTGATGAATTCTTCTATTCGAGTAAACAAATTTTCCTAATCTTTCTGTTCAAGCGCCATCTAC	0.277
GATGATTGTTCTCCCAGCTGATGAATTAGGAGCGTCGAGTAAACAAATTTTCCTAATCTTTCTGTTCAAGCGCCATCTAC	0.479
GATGATTGTTCTCCCAGCTGATGAATTCGACACGTCGAGTAAACAAATTTTCCTAATCTTTCTGTTCAAGCGCCATCTAC	0.687
GATGATTGTTCTCCCAGCTGATGAATTTGAGAATTCGAGTAAACAAATTTTCCTAATCTTTCTGTTCAAGCGCCATCTAC	0.708
GATGATTGTTCTCCCAGCTGATGAATTCTGTCTCTCGAGTAAACAAATTTTCCTAATCTTTCTGTTCAAGCGCCATCTAC	1.29
GATGATTGTTCTCCCAGCTGATGAATTACGCGCATCGAGTAAACAAATTTTCCTAATCTTTCTGTTCAAGCGCCATCTAC	1.54
GATGATTGTTCTCCCAGCTGATGAATTGCACTAATCGAGTAAACAAATTTTCCTAATCTTTCTGTTCAAGCGCCATCTAC	0.711
GATGATTGTTCTCCCAGCTGATGAATTGACGGTTTCGAGTAAACAAATTTTCCTAATCTTTCTGTTCAAGCGCCATCTAC	0.526
GATGATTGTTCTCCCAGCTGATGAATTCAAGGTCTCGAGTAAACAAATTTTCCTAATCTTTCTGTTCAAGCGCCATCTAC	0.427
GATGATTGTTCTCCCAGCTGATGAATTACTGTACTCGAGTAAACAAATTTTCCTAATCTTTCTGTTCAAGCGCCATCTAC	0.488
GATGATTGTTCTCCCAGCTGATGAATTCGCTGTGTCGAGTAAACAAATTTTCCTAATCTTTCTGTTCAAGCGCCATCTAC	1.94
GATGATTGTTCTCCCAGCTGATGAATTTTGGGAGTCGAGTAAACAAATTTTCCTAATCTTTCTGTTCAAGCGCCATCTAC	0.255
GATGATTGTTCTCCCAGCTGATGAATTACCGGCATCGAGTAAACAAATTTTCCTAATCTTTCTGTTCAAGCGCCATCTAC	0.768
GATGATTGTTCTCCCAGCTGATGAATTGCCATTCTCGAGTAAACAAATTTTCCTAATCTTTCTGTTCAAGCGCCATCTAC	1.08
GATGATTGTTCTCCCAGCTGATGAATTCCTGTAATCGAGTAAACAAATTTTCCTAATCTTTCTGTTCAAGCGCCATCTAC	0.568
GATGATTGTTCTCCCAGCTGATGAATTAGCCGTCTCGAGTAAACAAATTTTCCTAATCTTTCTGTTCAAGCGCCATCTAC	0.412
GATGATTGTTCTCCCAGCTGATGAATTCAAATAATCGAGTAAACAAATTTTCCTAATCTTTCTGTTCAAGCGCCATCTAC	0.448
GATGATTGTTCTCCCAGCTGATGAATTAAGTAATTCGAGTAAACAAATTTTCCTAATCTTTCTGTTCAAGCGCCATCTAC	1.05
GATGATTGTTCTCCCAGCTGATGAATTGTGGTCGTCGAGTAAACAAATTTTCCTAATCTTTCTGTTCAAGCGCCATCTAC	0.851

Sequence	binding signal (RPM ratio (pull-down/input))
GATGATTGTTCTCCCAGCTGATGAATTCGAACGGTCGAGTAAACAAATTTTCCTAATCTTTCTGTTCAAGCGCCATCTAC	0.222
GATGATTGTTCTCCCAGCTGATGAATTTTAGACATCGAGTAAACAAATTTTCCTAATCTTTCTGTTCAAGCGCCATCTAC	0.45
GATGATTGTTCTCCCAGCTGATGAATTACACACGTCGAGTAAACAAATTTTCCTAATCTTTCTGTTCAAGCGCCATCTAC	0.634
GATGATTGTTCTCCCAGCTGATGAATTCGAAACCTCGAGTAAACAAATTTTCCTAATCTTTCTGTTCAAGCGCCATCTAC	0.261
GATGATTGTTCTCCCAGCTGATGAATTCAGCACATCGAGTAAACAAATTTTCCTAATCTTTCTGTTCAAGCGCCATCTAC	0.711
GATGATTGTTCTCCCAGCTGATGAATTTGCATCATCGAGTAAACAAATTTTCCTAATCTTTCTGTTCAAGCGCCATCTAC	6.33
GATGATTGTTCTCCCAGCTGATGAATTGGTGGCCTCGAGTAAACAAATTTTCCTAATCTTTCTGTTCAAGCGCCATCTAC	0.837
GATGATTGTTCTCCCAGCTGATGAATTATCAACATCGAGTAAACAAATTTTCCTAATCTTTCTGTTCAAGCGCCATCTAC	1.44
GATGATTGTTCTCCCAGCTGATGAATTGCGGTCCTCGAGTAAACAAATTTTCCTAATCTTTCTGTTCAAGCGCCATCTAC	0.73
GATGATTGTTCTCCCAGCTGATGAATTAGGACCATCGAGTAAACAAATTTTCCTAATCTTTCTGTTCAAGCGCCATCTAC	0.499
GATGATTGTTCTCCCAGCTGATGAATTCACATCCTCGAGTAAACAAATTTTCCTAATCTTTCTGTTCAAGCGCCATCTAC	0.484
GATGATTGTTCTCCCAGCTGATGAATTGTGGGCGTCGAGTAAACAAATTTTCCTAATCTTTCTGTTCAAGCGCCATCTAC	0.752
GATGATTGTTCTCCCAGCTGATGAATTCTTACTCTCGAGTAAACAAATTTTCCTAATCTTTCTGTTCAAGCGCCATCTAC	0.302
GATGATTGTTCTCCCAGCTGATGAATTCCTACAATCGAGTAAACAAATTTTCCTAATCTTTCTGTTCAAGCGCCATCTAC	0.294
GATGATTGTTCTCCCAGCTGATGAATTCATGCCTTCGAGTAAACAAATTTTCCTAATCTTTCTGTTCAAGCGCCATCTAC	1.85
GATGATTGTTCTCCCAGCTGATGAATTCGAGCGCTCGAGTAAACAAATTTTCCTAATCTTTCTGTTCAAGCGCCATCTAC	0.347
GATGATTGTTCTCCCAGCTGATGAATTGACAACCTCGAGTAAACAAATTTTCCTAATCTTTCTGTTCAAGCGCCATCTAC	0.534
GATGATTGTTCTCCCAGCTGATGAATTAATCGCCTCGAGTAAACAAATTTTCCTAATCTTTCTGTTCAAGCGCCATCTAC	0.621
GATGATTGTTCTCCCAGCTGATGAATTAGAAGTCTCGAGTAAACAAATTTTCCTAATCTTTCTGTTCAAGCGCCATCTAC	0.361
GATGATTGTTCTCCCAGCTGATGAATTCTGCTGCTCGAGTAAACAAATTTTCCTAATCTTTCTGTTCAAGCGCCATCTAC	0.731
GATGATTGTTCTCCCAGCTGATGAATTATAGACATCGAGTAAACAAATTTTCCTAATCTTTCTGTTCAAGCGCCATCTAC	0.664

Sequence	binding signal (RPM ratio (pull-down/input))
GATGATTGTTCTCCCAGCTGATGAATTAACGGTCTCGAGTAAACAAATTTTCCTAATCTTTCTGTTCAAGCGCCATCTAC	0.368
GATGATTGTTCTCCCAGCTGATGAATTAACTCTTTCGAGTAAACAAATTTTCCTAATCTTTCTGTTCAAGCGCCATCTAC	0.323
GATGATTGTTCTCCCAGCTGATGAATTGTCATTTTCGAGTAAACAAATTTTCCTAATCTTTCTGTTCAAGCGCCATCTAC	0.999
GATGATTGTTCTCCCAGCTGATGAATTGGTTGCCTCGAGTAAACAAATTTTCCTAATCTTTCTGTTCAAGCGCCATCTAC	2.39
GATGATTGTTCTCCCAGCTGATGAATTGTACCATTCGAGTAAACAAATTTTCCTAATCTTTCTGTTCAAGCGCCATCTAC	0.682
GATGATTGTTCTCCCAGCTGATGAATTCCTTGCGTCGAGTAAACAAATTTTCCTAATCTTTCTGTTCAAGCGCCATCTAC	0.417
GATGATTGTTCTCCCAGCTGATGAATTGACCGAATCGAGTAAACAAATTTTCCTAATCTTTCTGTTCAAGCGCCATCTAC	0.227
GATGATTGTTCTCCCAGCTGATGAATTCATCCGATCGAGTAAACAAATTTTCCTAATCTTTCTGTTCAAGCGCCATCTAC	0.221
GATGATTGTTCTCCCAGCTGATGAATTTCTAAAATCGAGTAAACAAATTTTCCTAATCTTTCTGTTCAAGCGCCATCTAC	0.2
GATGATTGTTCTCCCAGCTGATGAATTGATCTCGTCGAGTAAACAAATTTTCCTAATCTTTCTGTTCAAGCGCCATCTAC	0.276
GATGATTGTTCTCCCAGCTGATGAATTGGCACAGTCGAGTAAACAAATTTTCCTAATCTTTCTGTTCAAGCGCCATCTAC	0.32
GATGATTGTTCTCCCAGCTGATGAATTATGGCGGTCGAGTAAACAAATTTTCCTAATCTTTCTGTTCAAGCGCCATCTAC	0.638
GATGATTGTTCTCCCAGCTGATGAATTGACATCCTCGAGTAAACAAATTTTCCTAATCTTTCTGTTCAAGCGCCATCTAC	0.561
GATGATTGTTCTCCCAGCTGATGAATTACTTGTTTCGAGTAAACAAATTTTCCTAATCTTTCTGTTCAAGCGCCATCTAC	0.804
GATGATTGTTCTCCCAGCTGATGAATTGGGAGCTTCGAGTAAACAAATTTTCCTAATCTTTCTGTTCAAGCGCCATCTAC	0.302
GATGATTGTTCTCCCAGCTGATGAATTATGCAAGTCGAGTAAACAAATTTTCCTAATCTTTCTGTTCAAGCGCCATCTAC	3.21
GATGATTGTTCTCCCAGCTGATGAATTTCGCTAATCGAGTAAACAAATTTTCCTAATCTTTCTGTTCAAGCGCCATCTAC	0.341
GATGATTGTTCTCCCAGCTGATGAATTAGTCCGCTCGAGTAAACAAATTTTCCTAATCTTTCTGTTCAAGCGCCATCTAC	0.349
GATGATTGTTCTCCCAGCTGATGAATTGCCTTAATCGAGTAAACAAATTTTCCTAATCTTTCTGTTCAAGCGCCATCTAC	0.522
GATGATTGTTCTCCCAGCTGATGAATTTAGTGCTTCGAGTAAACAAATTTTCCTAATCTTTCTGTTCAAGCGCCATCTAC	1.27
GATGATTGTTCTCCCAGCTGATGAATTATGTACTTCGAGTAAACAAATTTTCCTAATCTTTCTGTTCAAGCGCCATCTAC	1.46
